# Values joined by “and” are separate entries in the source; they are usually repeats but may differ in a detail not shown here. Equal values may be shown once. Among all 220,000 compounds or so, about 16,000 (7.3%) were called active. Inconclusive means that the source gave no clear call. Such entries were picked first, then a sample of the others. Calls come from the whole dose curve; as a rule, active = well fitted inhibition curve with a large enough effect (not every such curve was filed as active); inconclusive = small, poorly fitted or top-dose-only effect, or another doubt; inactive = no such curve, though single readings can be large or run the other way. Potencies of inconclusive entries are left out as doubtful fits.
# Molecular target: Aldehyde dehydrogenase 1A1 (Homo sapiens) (UniProt P00352)
# Experiment: qHTS Assay for Inhibitors of Aldehyde Dehydrogenase 1 (ALDH1A1);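 for activity, negative = inhibition: plate controls were no enzyme wells and a reference inhibitor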
# Conditions: Purified ALDH1A1, NADH fluorescence, propionaldehyde substrate; series mostly up to 75.3 µM
# Potency is the fitted concentration of half-maximal effect; tags give direction and shape of the fitted curve.
# UniProt P00352, sequence (P00352 whole entry, looked up): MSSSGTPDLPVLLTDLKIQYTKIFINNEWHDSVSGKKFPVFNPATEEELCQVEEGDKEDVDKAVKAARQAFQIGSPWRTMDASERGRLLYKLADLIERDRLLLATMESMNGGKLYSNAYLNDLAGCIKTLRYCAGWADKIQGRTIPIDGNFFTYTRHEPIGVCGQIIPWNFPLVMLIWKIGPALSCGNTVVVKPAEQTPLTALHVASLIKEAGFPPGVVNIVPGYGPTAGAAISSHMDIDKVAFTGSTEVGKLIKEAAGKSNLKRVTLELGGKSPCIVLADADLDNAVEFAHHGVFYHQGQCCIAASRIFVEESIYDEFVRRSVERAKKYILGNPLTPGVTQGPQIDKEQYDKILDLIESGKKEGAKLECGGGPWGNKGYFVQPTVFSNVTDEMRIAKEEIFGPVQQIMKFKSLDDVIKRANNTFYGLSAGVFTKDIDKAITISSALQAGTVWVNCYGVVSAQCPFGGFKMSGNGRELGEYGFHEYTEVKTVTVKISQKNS
Compound,Potency,"activity, negative = inhibition"
COc1cc(C2C(C#N)=C(N)N(Nc3ccccc3)C3=C2C(=O)CC(C)(C)C3)ccc1OCc1ccccc1 (centres undefined),"inconclusive [inhibitor, single point]",–
CCn1c2ccccc2c2cc(NC(=O)c3cccc([N+](=O)[O-])c3)ccc21,inactive,–
CN(Cc1ccccc1)C(=S)NC(=O)c1ccc(-c2ccccc2)cc1,"inconclusive [inhibitor, single point]",–
Nc1nc(-c2c[nH]c3ccccc23)cs1,active: 7.94 µM,–
CCOC(=O)c1sc(NC(=O)CCN2CCOCC2)c(C(=O)OCC)c1C,active: 17.8 µM,–
Cc1ccc(C(=O)c2cc([N+](=O)[O-])ccc2N2CC(C)OC(C)C2)cc1 (centres undefined),"inconclusive [inhibitor, partial curve]",–
COC(=O)c1ccc(CSc2nc(-c3ccco3)cc(C(F)(F)F)n2)o1,"inconclusive [inhibitor, single point]",–
Cc1ccc2[nH]c3c(=O)n(N)c(C)nc3c2c1,"inconclusive [inhibitor, single point]",–
COc1cc(NS(=O)(=O)c2ccc(NC(=S)NC(=O)/C=C/c3ccco3)cc2)ncn1,"inconclusive [inhibitor, single point]",–
CC(=O)N1CCN(Cc2nc3cc(NC(=O)c4ccc(F)cc4)ccc3n2C)CC1,inactive,–
Cc1nc2cc(-c3ccc(Cl)cc3)nn2c(C)c1CCC(=O)NC(C)c1ccc2c(c1)OCCO2 (centres undefined),"inconclusive [inhibitor, partial curve]",–
Cc1ccc(C(=O)NC(C#N)=C(Cl)Cl)cc1,"inconclusive [inhibitor, single point]",–
COCCNc1ncnc2ccc(-c3ccccc3C(F)(F)F)cc12,"inconclusive [inhibitor, partial curve]",–
COc1ccc(CN(C)CC(=O)Nc2c(C)cccc2C)c(OC)c1,"inconclusive [inhibitor, single point]",–
CCOC(=O)C1=NN(c2ccccc2C)C2=NC(C)=C(C(=O)OC)C(c3cccc(OC)c3)N12 (centres undefined),inactive,–
COC(=O)c1ccc(Cn2cnc3c(cnn3-c3ccc(Cl)cc3)c2=O)o1,"inconclusive [inhibitor, single point]",–
COc1ccc(/C=C2\Sc3ccc(C(=O)NCc4cccnc4)cc3N(C)C2=O)cc1OC,"inconclusive [inhibitor, single point]",–
COc1cc(SC)ccc1C(=O)NC1CCCCC1,"inconclusive [inhibitor, single point]",–
O=S(=O)(c1ccc(NC(=S)N2CCN(c3ccccc3F)CC2)cc1)N1CCOCC1,"inconclusive [inhibitor, partial curve]",–
Cc1cc(NC(=O)CSc2cc(Cl)ccc2Cl)n(-c2ccccc2)n1,"inconclusive [inhibitor, single point]",–
CC(c1ccccc1)n1c(-c2ccncc2)n[nH]c1=S (centres undefined),"inconclusive [inhibitor, single point]",–
CCN1C(=O)C(O)(CC(=O)c2ccc3c(c2)OCCO3)c2ccccc21 (centres undefined),"inconclusive [inhibitor, single point]",–
COc1ccc(C(=O)NC(=S)NNC(=O)COc2ccccc2)cc1,active: 17.8 µM,–

Compound,Potency,"activity, negative = inhibition"
CCOC(=O)c1sc(NC(=O)CSc2nc(O)c(Cc3ccccc3)c(=O)[nH]2)nc1C,"inconclusive [inhibitor, single point]",–
O=C(CCc1ccccc1)NNC(=O)c1ccccc1F,"inconclusive [inhibitor, single point]",–
CC(OC(=O)COc1ccccc1[N+](=O)[O-])C(=O)Nc1ccc(N2CCOCC2)cc1 (centres undefined),inactive,–
Cc1ccc(NC(=S)NNC(=O)c2ccc(N3CCOCC3)c([N+](=O)[O-])c2)cc1C,active: 3.98 µM,–
S=C(Nc1ccccc1Oc1ccccc1)Nc1cccc(Cl)c1Cl,"inconclusive [inhibitor, single point]",–
CSc1ncccc1C(=O)NC1CCCCCC1,inactive,–
Cc1cc(/C=C2\SC(=S)NC2=O)c(C)n1C,inactive,–
COc1ccc2ncn(-c3ccccc3)c2c1,"inconclusive [inhibitor, partial curve, poor fit]",–
CC(=O)NS(=O)(=O)c1ccc(NC(=O)c2cccc(S(=O)(=O)N3CCc4ccccc43)c2)cc1,"inconclusive [inhibitor, single point]",–
CCNC(=S)NCc1ccc(F)cc1,inactive,–
CC(c1ccccc1)N1CCn2c(nc3cc(NC(=O)NC4CCCCC4)ccc32)C1 (centres undefined),"inconclusive [inhibitor, partial curve]",–
Cc1occc1-c1nnc(SCC(=O)Nc2ccccc2)n1CCc1ccccc1,inactive,–
COc1ccc(CNC(=O)CCC(=O)N2CCN(S(=O)(=O)c3ccc(Cl)cc3)CC2)cc1,"inconclusive [inhibitor, partial curve]",–
CCn1cc(C(=O)OCC(=O)NCc2ccc3c(c2)OCO3)c(=O)c2ccc(C)nc21,"inconclusive [inhibitor, single point]",–
COc1cccc(NC(=O)/C=C\c2ccc(Cl)cc2)c1,"inconclusive [inhibitor, single point]",–
CCOC(=O)c1[nH]c(C)c(C(=O)NCC2CCCO2)c1C (centres undefined),"inconclusive [inhibitor, single point]",–
c1ccc2[nH]c(SCCN3CCOCC3)nc2c1,inactive,–
O=S(=O)(NCC1CCCO1)c1cnc(Cl)c(Cl)c1 (centres undefined),active: 3.55 µM,–
Cc1cc(C)c[n+](-c2[nH]c(=O)sc2/C=N/NC([S-])=Nc2ccccc2)c1,"inconclusive [inhibitor, single point]",–
CC(C)(CNCC(O)c1ccccc1)N1CCOCC1 (centres undefined),"inconclusive [inhibitor, single point]",–
CN1CCN(C(=O)c2ccc(CN(c3ccccc3)S(=O)(=O)c3ccccc3)cc2)CC1,inactive,–
CC(C)C[C@H](NC(=O)c1nc[nH]c1C(=O)N(C)Cc1ccccc1)C(=O)OCc1ccccc1,"inconclusive [inhibitor, single point]",–
CCCc1cc(=O)oc2cc(OCC(=O)N3CCc4ccccc43)ccc12,"inconclusive [inhibitor, single point]",–

Compound,Potency,"activity, negative = inhibition"
Clc1ccc(-c2nc3cnccn3c2Nc2ccc3c(c2)OCO3)cc1,"inconclusive [inhibitor, single point]",–
COc1ccc(-n2c(=O)c(CCC(=O)N(C)Cc3ccccc3C)nc3ccccc32)cc1,"inconclusive [inhibitor, partial curve, poor fit]",–
Cc1c(NC(=O)CN2CCN(c3ccc(F)cc3)CC2)c(=O)n(-c2ccccc2)n1C,inactive,–
Cn1cc(SCC(=O)N2CCCc3ccccc32)c2ccccc21,active: 10 µM,–
O=C(NCCC1=CCCCC1)C1CCN(C(=O)Cc2ccccc2)CC1,active: 5.01 µM,–
Cc1ccc(-c2c(C#N)c(N)n3c(nc4ccccc43)c2C#N)cc1,active: 18.9 µM,–
c1ccc(OCc2nc3c4c(ncn3n2)-c2ccccc2CC42CCCC2)cc1,"inconclusive [inhibitor, single point]",–
O=C(O)c1ccccc1NC(=O)N1CCOCC1,"inconclusive [inhibitor, single point]",–
COC(=O)C/C=C\[C@@H](C)[C@@H](/C=N\O[C@@H](C)c1cn([C@H](CO)Cc2ccccc2)nn1)NS(=O)(=O)c1ccc(C)cc1,–,inactive: -4.52% [at 13.5 µM] and inactive: 3.56% [at 13.5 µM]
CC(=O)N1CCOCCOCCN(C(C)=O)CCOCC1,inactive,–
COC(=O)[C@@]1(Cc2ccc(OC)cc2)[C@H]2c3cc(C(=O)N(C)C)n(Cc4cc(F)c(F)c(F)c4)c3C[C@H]2CN1C(=O)c1ccccc1,inactive,–
CCSc1nc(-c2ccccc2)c(-c2ccccc2)n1CC(O)CO (centres undefined),"inconclusive [inhibitor, partial curve]",–
CC(C)(C)c1ccc(NS(=O)(=O)c2ccc(N)cc2)cc1,–,inactive: -11.7% [at 13.5 µM]
Cc1ccc(S(=O)(=O)c2c(COC(=O)c3cccc(Cl)c3)c(-c3ccccc3)nn2C)cc1,"inconclusive [inhibitor, single point]",–
Cc1sc2ncnc(NC(C)C(=O)O)c2c1C (centres undefined),"inconclusive [inhibitor, partial curve]",–
CC(C)CCN1CCC(N)=NC1=O,inactive,–
N#Cc1c(-c2ccccc2)ccn(Cc2ccccc2Cl)c1=O,"inconclusive [inhibitor, single point]",–
O=C(NCc1ccccc1)c1ccc(-c2ccc(F)cc2)o1,"inconclusive [inhibitor, partial curve]",–
Cc1cccc(-c2c3c(=O)n(C)c(=O)n(C)c3cn2CCO)c1,"inconclusive [inhibitor, single point]",–
C=CCc1cccc2cc(C(=O)NC3CCCC3)c(=O)oc12,"inconclusive [inhibitor, partial curve]",–
CC1CCN(c2cc(N3CCOCC3)c(F)cc2[N+](=O)[O-])CC1,"inconclusive [inhibitor, single point]",–
CN(Cc1ccccc1)S(=O)(=O)c1ccc(Cl)nc1,active: 22.4 µM,–
N#CCCN/N=C(/Cc1nc2ccccc2[nH]1)c1ccc(Cl)cc1,"inconclusive [inhibitor, single point]",–

# From PubChem BioAssay AID1030 (National Center for Advancing Translational Sciences (NCATS), 2008)
